# From ChEMBL document CHEMBL4888484, “Replenishing the malaria drug discovery pipeline: Screening and hit evaluation of the MMV Hit Generation Library 1 (HGL1) against asexual blood stage Plasmodium falciparum ,using a nano luciferase reporter read-out” (2022)
# The whole screen tested about 150,000 compounds, of which about 540 (0.36%) showed an effect of 50% or more. This is one part of the list.
# Tested on: Plasmodium falciparum
# Assay: Primary screen in NF54 nanoGlo assay, in single point, at 2uM, 72h; a lower Z score goes with more inhibition
# Type: functional, Erythrocyte
# Conditions: timepoint 72 hour
Structure (SMILES),% Inhibition [%],Z score
O=C(NCc1ccccc1)C1CCN(c2nc3nc[nH]c(=O)c3s2)CC1,-29,2.55
COCc1c(C(=O)N(C)Cc2ccc(C)o2)noc1C,-1,0.1
C[C@@]1(C(=O)NC2CCCCCCC2)Cn2c(ccc2-c2ccccc2)C(=O)N1Cc1ccccc1F,-13,1.64
CCOc1nccnc1N1CCN(CC(C)C)C(=O)C1,-12,1.49
COC[C@H]1CN(C2CCC2)CC12CCN(C(=O)Cc1cccc(OC)c1)CC2,-9,1.05
O=C(CN1CC[C@@]2(CCCN(CC3CCCCC3)C2=O)C1)NC1CC1,11,-1.44
O=C(c1cccc(C(F)(F)F)c1)N1CCC(n2cnnc2C2CC2)CC1,2,-0.34
COc1ccc(O[C@@H](C)CNC(=O)c2cc(C)n[nH]2)cc1,0,-0.08
C[C@H](NC(=O)c1cnn(C)c1C1CC1)c1nc[nH]n1,8,-1.22
CCCCn1nnnc1NC(=O)N(C)C[C@H]1CCCCO1,-12,1.6
CN(Cc1nccn1C)C(=O)c1ccc(=O)n(-c2ccccc2F)n1,-1,0.08
CCc1ccc(NC(=O)c2sc3ncnc(N(C)C4CCCCC4)c3c2C)cc1,-9,0.8
O=S(=O)(NC[C@@H](CO)Cc1ccco1)c1cc(F)cc(Cl)c1,-2,0.29
CCN(CC(=O)N1CCCN(c2ccc(-c3cccc(OC)c3)nn2)CC1)C(=O)c1ccc2c(c1)OCO2,-11,1.45
COc1ccc(S(=O)(=O)N2CCC(=O)c3ccccc32)cn1,-7,0.98
CCN(C(=O)c1ccn(C)c1C1CCC1)c1ccncc1,-3,0.6
Cc1nn(C)cc1[C@H](C)NC(=O)NCC1(C(=O)N(C)C)CCCC1,-9,0.95
Cc1nc(NS(=O)(=O)c2ccccc2)sc1NC(=O)Nc1ccccc1Cl,-19,2.48
CN(C(=O)c1ccncc1Cl)c1ncccc1C#N,3,-0.41
COc1ccc(S(=O)(=O)N[C@H]2CCN(c3ccc(=O)n(CC4CC4)n3)C2)cc1Cl,-7,0.85
COc1ccc(-c2cnc3ncnn3c2NCc2cccc(C)c2)cc1,6,-1.12
CCNC(=O)C[C@H]1COCCN1C(=O)c1ccc(Cn2ccnc2)o1,-10,1.33

Structure (SMILES),% Inhibition [%],Z score
COc1cn(CCO)c(C(=O)Nc2cccc(Cl)c2)cc1=O,-9,1.21
O=C(CCS(=O)(=O)c1ccc(Cl)cc1)Nc1ccc2c(c1)C(O)=Nc1cccnc1O2,18,-2.69
COc1cc2c(cc1OC)CN(C(=O)c1n[nH]c3c1CCC3)CC2,-15,1.85
Cc1cc(Br)c2ccccc2c1NC(=O)N(C)[C@H]1C[C@@H](C(N)=O)C1,-4,0.75
CCN(C(=O)[C@H]1CCS(=O)(=O)C1)c1ccc(OC)nc1,-33,3.89
CC(C)CC(=O)Nc1ccc(C2OC(=O)N(Cc3ccccc3)C2C(=O)Nc2ccc(F)cc2)cc1 (stereo not given),0,-0.06
COC(=O)c1cn(CC(=O)N2Cc3ccccc3N(C)C[C@@H]2C)nn1,-8,1.51
O=C([C@@H](O)c1ccccc1)N1CCC(c2nc(-c3ccncc3)cs2)CC1,-8,1.59
Cc1ccc([C@H](C)NC(=O)CN(C)C2Cc3ccccc3C2)cc1,-10,1.83
CC(C)(C)c1nsc(NCc2ccc[n+]([O-])c2)n1,-1,0.24
COc1ccc(C2=NN=C(c3ccc(C)cc3)Cc3c2c(=O)n(C)c(=O)n3C)cc1,5,-0.48
CCCn1cc(C(=O)N2C[C@H]3CCC[C@@]3(CO)C2)c(C)n1,-4,0.57
CC(OCC1CC1)C(=O)N1CCCC(n2cccn2)C1 (stereo not given),-9,1.23
CC(=O)N1CCC(C(=O)N2CCO[C@@H](CCCc3ccccc3)C2)CC1,-6,0.73
Cc1cccc(O[C@@H](C)C(=O)N2CCN(c3ccc(-n4ccnc4)nn3)CC2)c1,-13,2.56
CC(C)n1ccnc1CN(CC(=O)O)Cc1ccc(Cl)s1,-7,1.21
O=C(Nc1cccn2cnnc12)N(Cc1ccccn1)C1CCCCC1,-8,1.61
CC(C)Cn1cc(C(=O)NS(=O)(=O)c2ccsc2)cn1,-3,0.31
CC(=O)NCC1=CCCN(Cc2cc3c(cc2Cl)OCO3)C1,-15,2.62
O=C(CN1CCO[C@H]2COCC[C@H]21)Nc1cc(F)cc(F)c1,9,-1.47
COCC(=O)N1CC[C@@]2(O)CCN(Cc3ccc(F)cc3Cl)C[C@H]2C1,8,-1.03
Cn1c(C(=O)NC2(Cc3ccc(F)cc3)CC2)c2n(c1=O)CCCC2,-17,1.81

Structure (SMILES),% Inhibition [%],Z score
Brc1cncnc1N1CCCCC2CCCCC21 (stereo not given),-6,0.79
Fc1ccc(OC[C@H]2CCOC2)c(-c2cccc3nccn23)c1,-3,0.35
O=C(c1cnn(Cc2ccccc2)c1)N1CCc2c(nnn2-c2ccccc2)C1,11,-2.17
CN1CC[C@H](Cc2nc(-c3cc(Cl)c4c(c3)OCCCO4)no2)C1,-4,0.54
COCc1nc(-c2ccc(OC3CN(S(=O)(=O)c4ccc(F)cc4)C3)cc2)no1,-13,2.48
c1cn2cnnc2c(N2CC3CCCC3C2)n1 (stereo not given),-2,0.28
Fc1ccc(-c2n[nH]c3c2CN(CCCC(F)(F)F)CC3)cc1F,1,-0.17
CN(CC(=O)Nc1cccc(Oc2cccnn2)c1)c1ccccc1,-13,1.91
N#C[C@@H](NC(=O)c1ccnc(OCC(F)F)c1)c1ccsc1,-2,0.19
CC(C)[C@@H](CO)NC(=O)NCc1cccc(Cl)c1F,10,-1.55
CCN1CCN(CC(=O)N2N=C(c3cccc(F)c3)C[C@H]2c2ccccc2C)CC1,-6,0.61
COc1ncnc(N(C)C)c1NC(=O)C(=O)NCc1ccccc1,4,-0.53
CO[C@@H](C(=O)N(C)c1ncccc1F)c1ccccc1,10,-1.83
Cc1cccc(OCC(C)NC(=O)NC(C)c2nccs2)c1 (stereo not given),-8,1.54
c1cc(-c2ccc3ncccc3c2)nc(N2CCNCC2)c1,29,-3.69
CCOc1cccc([C@H](C)NS(=O)(=O)c2ccc3c(c2)NC(=O)CO3)c1,5,-0.79
O=C(CCc1nc(-c2ccoc2)no1)N1CCC[C@@H]1CN1CCCC1,2,-0.25
C=C1CCC(C(=O)N2CCN(c3ccc(F)cn3)CC2)CC1,-4,0.76
Cc1nc(N[C@H]2CCC(=O)NC2)c2c(C)csc2n1,-10,1.07
C[C@H]1CCCN(C(C)(C)CNS(C)(=O)=O)C1,-12,1.24
CC(C)(C)CNC(=O)C(C)(C)NC(=O)Nc1cccc(F)c1,6,-1
O=C(N1CCC(Cc2cc(F)ccc2F)CC1)C1(O)COC1,1,-0.08

Structure (SMILES),% Inhibition [%],Z score
c1ccc(Nc2ncc(-c3ccc4ccccc4c3)s2)cc1,-12,1.96
FC(F)c1nnc(NCCCn2cccn2)s1,-27,3.22
Cc1ccc(CNC(=O)C[C@H]2CCS(=O)(=O)C2)cc1,34,-4.39
Cc1ccc(NC(=O)c2ccc(CNC(=O)c3ccccc3)o2)cc1C,8,-1.37
C[C@@H](c1ccccc1)n1cnnc1Cc1c[nH]c2ccccc12,9,-1.22
Cn1cnc([C@@H]2CN(Cc3noc(C4CCC4)n3)C[C@H]2C(=O)NC2CC2)c1,-11,1.47
CN1CCCC(CNc2ccc(C#N)cn2)C1c1cccs1 (stereo not given),-12,1.24
CC(=O)Nc1ccc(C(C)=O)cc1OCC(=O)Nc1ccc2c(c1)CCC2,-9,1.34
Cc1cc([C@H]2C[C@H]3CC[C@@H](C2)N3C(=O)CN(C)C)ccc1F,-9,0.82
Nc1cc(C(=O)NCc2cccc(CO)c2)n[nH]1,0,0.03
CCCCN(CC(N)=O)CC(=O)Nc1ccc(Cl)cn1,-6,1.08
CC1CCN(C(=O)N2CC(CF)C2)CC1,3,-0.31
Cc1cccc(CN2CCC[C@@](O)(CN3CCCCO3)C2=O)c1,-5,0.78
Cc1cc(NC(=O)NCc2cc[nH]n2)no1,-7,1.32
Cc1ccnc(NCCn2cnc3nccnc3c2=O)c1,-7,1.32
COCC(O)CNC(=O)C(C)c1ccc(Cl)s1 (stereo not given),-2,0.29
Cc1cc(C)cc(CN2CCN(C(=O)c3ncc(F)cc3F)CC2=O)c1,2,-0.36
COc1ccc(C(=O)NC(c2ccccc2)[C@H]2C[C@@H](O)C2)c(OC)c1 (stereo not given in full),5,-0.62
CCOc1ccc(CNC(=O)C2CCN(S(=O)(=O)N3CCC(C)CC3)CC2)cc1OC,-2,0.29
